{"source": "patent US12377163B2", "about": "“Anti-B7H3 antibody-exatecan analog conjugate and medicinal use thereof” (JIANGSU HANSOH PHARMACEUTICAL GROUP CO., LTD, priority 2018, dated 2025)", "key": {"[1]": {"assay": "T1/2 evaluation on SD rats", "assay_type": "in vivo", "details": "SD rat, IV 3 mg/kg", "protocol": "4 SD rats (purchased from Shanghai JieSiJie Laboratory Animal Co., Ltd., half male and half female) were maintained in light/dark cycle adjusted at 12/12 hours, with constant temperature of 24±3° C., humidity of 50-60%, and free access to food and water. On the day of the experiment, SD rats were injected with the test agent B7H3 antibody/ADC respectively into tail vein at a dose of 3 mg/kg and an injection volume of 5 ml/kg.\nThe time point for blood collection: On the first day of administration, blood was taken from ocular fundus vein at 5 min, 8 h, 24 h (Day 2), Day 3, Day 5, Day 8, Day 11 and Day 15 after administration, each 200 μL (equivalent to 100 μL of serum). The collected blood samples were left to stand at room temperature for half an hour until coagulation, and then centrifuged at 10,000×g at 4° C. for 10 minutes. The supernatant was collected and immediately stored at −80° C.\nThe B7H3 antibody concentration in the serum was measured by ELISA, and PK analysis was performed."}, "[2]": {"assay": "Chemical stability of the B7H3 antibody (40° C., LC-MS of modification sites)", "assay_type": "physicochemical", "details": "PBS pH 7.4, 40° C.", "protocol": "Chemical modification after antibody preparation is one of the common reasons leading to the product stability problem, especially the high degree of deamination, oxidation or isomerization modification at some amino acids in the CDR region. Those modifications should be avoided or reduced. 500 μg of the antibody to be tested was dissolved in 500 μl of PBS (pH 7.4), and subjected to a water bath at 40° C. Samples were taken at day 0, 10, and 20 respectively for enzymatic hydrolysis experiments. 100 μg of samples were taken at different time points and dissolved in 100 μl of 0.2 M His-HCl (histidine hydrochloride buffer) and 8 M Gua-HCl (pH 6.0, citrulline hydrochloride buffer). 3 μl of 0.1 g/mL DTT (dithiothreitol) was added, and subjected to water bath at 50° C. for 1 hour. The samples were ultra-filtered twice with 0.02 M His-HCl solution (pH 6.0), and 3 μL of 0.25 mg/mL trypsin (invitrogen, CAT#25200-072) was added. The mixture was subjected to enzymolysis overnight at 37° C. in a water bath. LC-MS was carried out using Agilent 6530 Q-TOF, and potential modification sites were analyzed by mass spectrometry (the results are shown in Table 4)."}, "[3]": {"system": "U87MG cells", "assay": "In vitro endocytosis test", "assay_type": "cell-based, human", "details": "37° C., 0-120 minutes", "protocol": "In this experiment, the endocytosis effect of the antibody was evaluated based on the intensity of fluorescence signal of the intracellular antibody. The B7-H3 antibody and APC anti-human IgG Fc (Biolegend, 409306) were mixed at a molar ratio of 1:2 and incubated on ice for 15 minutes. The antibody mixture was incubated with 2×10^5 U87MG cells (human brain astroblastoma, Chinese Academy of Sciences cell bank, Catalog #TCHu138) on ice for 30 minutes, and excess antibody was removed by washing. The cells were transferred to a 37° C. prewarmed medium, and incubated at 37° C. for 0, 15, 30, 60 and 120 minutes respectively. The cells were centrifuged and resuspended in the antibody elution solution (0.05M glycine, 0.1M NaCl, pH 2.45). After incubating for 7 minutes at room temperature, the antibody elution solution was removed by washing, and the intracellular fluorescence signal was read using BD Verse (results shown in FIG. 1)."}, "[4]": {"assay": "Antibody stability, IEX test", "assay_type": "physicochemical", "protocol": "(§1) The stability of h1702 and h1702DS was tested by SEC, non-reducing CE-SDS test method (pH 9.0) and IEX test method.\nWaters Acquity H-Class chromatograph and Thermo MAbPac SCX-10 column were used. 50 μg of the antibody was loaded, and a linear gradient was applied, using CX-1 pH Gradient Buffer Kit as the mobile phase. Ultraviolet signal at a wavelength of 280 nm was collected."}, "[5]": {"assay": "Antibody stability, SEC test", "assay_type": "physicochemical", "protocol": "as §1\nSEC test: Waters e2695 chromatograph and Xbridge BEH 200A SEC column were used. 50 μg of antibody was loaded, and eluted with PBS mobile phase in constant gradient."}, "[6]": {"assay": "Antibody stability, non-reducing CE-SDS (pH 9.0)", "assay_type": "physicochemical", "protocol": "as §1\nSamples were processed using the Beckman SDS-MW Analysis Kit. 100 μg of protein was added with a buffer solution, and heated to denature. Data was collected using PA800 capillary electrophoresis apparatus."}, "[7]": {"system": "CHOK1 cells", "assay": "In vitro cell proliferation test (CellTiter-Glo), CHO-K1", "assay_type": "cell-based", "details": "ADCs with various drug loadings, procedures as Test Example 6", "protocol": "(§2) Then the cells were resuspended by the addition of fresh medium. The cells were counted, and the cell suspension was formulated to the corresponding density (U87MG cells: 500 cells/well; […] 180 μL of cell suspension was added to a 96-well plate, and 200 μL of medium was added to the periphery of the 96-well plate. The plate was incubated for 24 hours in an incubator (37° C., 5% CO2). […] The samples were added to the plate, which was incubated for 6 days in the incubator (37° C., 5% CO2). 90 μl of CellTiter-Glo reagent was added to each well of the 96-well plate, and the plate was left to stand in the dark at room temperature for 10 minutes. The chemiluminescence signal value was read in Victor3, and the data was processed by GraphPad software."}, "[8]": {"system": "Calu-6 cells", "assay": "In vitro cell proliferation test (CellTiter-Glo), Calu-6", "assay_type": "cell-based", "details": "ADCs with various drug loadings, procedures as Test Example 6", "protocol": "as §2, with “EMEM medium preparation: MEM medium (GE, CAT #SH30024.01), NEAA (sigma, CAT#M7145-100ML) and sodium pyruvate solution (sigma, CAT #S8636-100ML). […] Then” for “Then”"}, "[9]": {"system": "Detroit562 cells", "assay": "In vitro cell proliferation test (CellTiter-Glo), Detroit562", "assay_type": "cell-based, human", "details": "ADCs with various drug loadings, procedures as Test Example 6", "protocol": "as §2, with “EMEM medium preparation: MEM medium (GE, CAT #SH30024.01), NEAA (sigma, CAT#M7145-100ML) and sodium pyruvate solution (sigma, CAT #S8636-100ML). […] Then” for “Then”"}}}
{"molecule": "h1702: fully humanized anti-B7H3 antibody, heavy chain SEQ ID NO: 14 and light chain SEQ ID NO: 15 (antibody, Synthetic Sequence_Heavy chain (IgG1) amino acid sequence of 1702; Synthetic Sequence_Light chain amino acid sequence of 1702) heavy: QVQLVQSGGGVVQPGTSLRLSCAASGFIFSSSAMHWVRQAPGKGLEWVAVISYDGSNKYYVDSVKGRFTISRDNSKNTLYLQMNSLRAEDTAVYYCARSARLYASFDYWGQGALVTVSS[human IgG1 constant region not listed] light: QTVVTQEPSFSVSPGGTVTLTCGLSSGSVSTSHYPSWYQQTPGQAPRMLIYNTNTRSSGVPDRFSGSILGNKAALTITGAQADDESDYYCAIHVDRDIWVFGGGTKLTVLGQPKANPTVTLFPPSSEELQANKATLVCLISDFYPGAVTVAWKADGSPVKAGVETTKPSKQSNNKYAASSYLSLTPEQWKSHRSYSCQVTHEGSTVEKTVAPTECS", "values": [{"measurement": "half-life in rats", "setting": "[1]", "result": "~185", "unit": "h"}, {"measurement": "HC M34/oxidation, Day 0", "setting": "[2]; Day 0", "result": 3.52, "unit": "%"}, {"measurement": "HC M83/oxidation, Day 0", "setting": "[2]; Day 0", "result": 0.98, "unit": "%"}, {"measurement": "LC M48/oxidation, Day 0", "setting": "[2]; Day 0", "result": 2.82, "unit": "%"}, {"measurement": "HC M34/oxidation, Day 10", "setting": "[2]; Day 10", "result": 3.46, "unit": "%"}, {"measurement": "HC M83/oxidation, Day 10", "setting": "[2]; Day 10", "result": 1.01, "unit": "%"}, {"measurement": "LC M48/oxidation, Day 10", "setting": "[2]; Day 10", "result": 2.9, "unit": "%"}, {"measurement": "HC M34/oxidation, Day 20", "setting": "[2]; Day 20", "result": 3.38, "unit": "%"}, {"measurement": "HC M83/oxidation, Day 20", "setting": "[2]; Day 20", "result": 0.01, "unit": "%"}, {"measurement": "LC M48/oxidation, Day 20", "setting": "[2]; Day 20", "result": 2.83, "unit": "%"}, {"measurement": "tendency towards deamidation, oxidation or heterogeneity", "setting": "[2]; day 0, 10, 20", "result": "no significantly increased tendency towards deamidation, oxidation or heterogeneity"}, {"measurement": "endocytosis effect (intracellular fluorescence signal)", "setting": "[3]", "result": "efficiently endocytosed into cells"}, {"measurement": "IEX", "setting": "[4]", "result": 40.5, "unit": "%"}, {"measurement": "SEC", "setting": "[5]", "result": 100, "unit": "%"}, {"measurement": "CE-SDS (pH9.0)", "setting": "[6]", "result": 71.21, "unit": "%"}]}
{"molecule": "h1702DS: anti-B7H3 antibody, light chain mutant of 1702; heavy chain SEQ ID NO: 14, light chain SEQ ID NO: 16 (antibody, Synthetic Sequence_Heavy chain (IgG1) amino acid sequence of 1702; Synthetic Sequence_Light chain sequence of 1702DS after mutation modification) heavy: QVQLVQSGGGVVQPGTSLRLSCAASGFIFSSSAMHWVRQAPGKGLEWVAVISYDGSNKYYVDSVKGRFTISRDNSKNTLYLQMNSLRAEDTAVYYCARSARLYASFDYWGQGALVTVSS[human IgG1 constant region not listed] light: DTVVTQEPSFSVSPGGTVTLTCGLSSGSVSTSHYPSWYQQTPGQAPRMLIYNTNTRSSGVPDRFSGSILGNKAALTITGAQADDESDYYCAIHVDRDIWVFGGGTKLTVLGQPKANPTVTLFPPSSEELQANKATLVCLISDFYPGAVTVAWKADGSPVKAGVETTKPSKQSNNKYAASSYLSLTPEQWKSHRSYSCQVTHEGSTVEKTVAPTEC", "values": [{"measurement": "CHOK1 Maximum inhibition rate (%)", "setting": "[7]", "result": 12.62, "unit": "%"}, {"measurement": "IC50", "setting": "[7]; read-out: CHOK1 IC50", "result": "> 500", "unit": "nM"}, {"measurement": "IEX", "setting": "[4]", "result": 86.21, "unit": "%"}, {"measurement": "Calu-6 Maximum inhibition rate (%)", "setting": "[8]", "result": 0.99, "unit": "%"}, {"measurement": "IC50", "setting": "[8]; read-out: Calu-6 IC50", "result": "> 500", "unit": "nM"}, {"measurement": "SEC", "setting": "[5]", "result": 100, "unit": "%"}, {"measurement": "Detroit562 Maximum inhibition rate (%)", "setting": "[9]", "result": "−2.77", "unit": "%"}, {"measurement": "IC50", "setting": "[9]; read-out: Detroit562 IC50", "result": "> 500", "unit": "nM"}, {"measurement": "CE-SDS (pH9.0)", "setting": "[6]", "result": 94.67, "unit": "%"}]}
